Assay results published in the BET-seq Pho4 binding data (Le et al. 2018).
The other results are listed elsewhere or left out. The energies were worked out here from pooled read counts, against the library average; single values are noisy.

These sequences were tested against T1, Pho4 (S. cerevisiae) (UniProt P07270) (assay: relative binding free energy (BET-seq); higher = weaker binding). Conditions: reference: library average.
T1 sequence: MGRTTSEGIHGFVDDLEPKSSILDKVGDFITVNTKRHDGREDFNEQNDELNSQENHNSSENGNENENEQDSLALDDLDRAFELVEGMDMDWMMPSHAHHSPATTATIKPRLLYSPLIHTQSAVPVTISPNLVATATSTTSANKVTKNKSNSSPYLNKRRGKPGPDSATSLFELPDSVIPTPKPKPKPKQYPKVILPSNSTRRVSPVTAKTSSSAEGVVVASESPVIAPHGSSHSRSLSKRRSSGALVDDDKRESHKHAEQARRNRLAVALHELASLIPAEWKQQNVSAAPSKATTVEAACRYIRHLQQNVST

Sequence | relative binding free energy [kcal/mol]
ATGTTCACGTGAGGCG | 0.34
GGTTACACGTGAGCTT | 0.3
GGCGACACGTGTGTTT | 0.02
CGTGGCACGTGGGCCG | -0.15
GCTAACACGTGTGTGT | 0.02
CTGGTCACGTGGTTTA | 0.03
TGAAACACGTGTGGTG | -0.08
AGGGGCACGTGAGACT | 0.17
AGGTGCACGTGTCGGC | 0.06
GTTATCACGTGATAAT | 0.19
TCTGGCACGTGGTAGT | -0.21
AGTGTCACGTGAGGAG | 0.23
AAGCACACGTGGTGGT | 0.01
GGTAACACGTGATCTG | 0.31
TTAGACACGTGGCTTG | -0.13
GTCCTCACGTGTGGTG | 0.13
TCTGGCACGTGTGGTC | -0.09
GGGGTCACGTGAAATT | 0.35
GTTAGCACGTGTGTCA | -0.02
GGTAGCACGTGATGAA | 0.17
TGGGACACGTGTGCGT | 0.11
TGTTTCACGTGTGGGC | 0.31
CGTGTCACGTGTAGTT | 0.12

Sequence | relative binding free energy [kcal/mol]
TCGGGCACGTGCGGGG | -0.1
AATGTCACGTGGGTAG | -0.04
TGTTGCACGTGTTCAA | -0.14
GTCATCACGTGTGATG | 0.24
GGTGGCACGTGTACGC | 0.04
ATGAGCACGTGTTCGG | -0.06
GTGGCCACGTGGGAGT | -0.09
GACGGCACGTGTTTTG | 0.03
TGAGACACGTGGTTGG | 0.04
GTCTGCACGTGTACGG | 0.11
GGAACCACGTGGTGGG | -0.1
GGTTTCACGTGGGCGG | 0.24
TTGGACACGTGAATGG | 0.32
CGTATCACGTGGAAGG | 0.09
TATCTCACGTGATGGG | 0.39
TGTTACACGTGAGAGG | 0.25
AAAGTCACGTGTTGGG | 0.13
TACAGCACGTGTTGGT | -0.02
TTTTACACGTGAGACG | 0.34
ATGTACACGTGTGGTT | 0.02
CGGTACACGTGGCGTT | 0.08
TTTGGCACGTGTTTAA | -0.04
TGAATCACGTGGTGAA | 0.26

Sequence | relative binding free energy [kcal/mol]
CGCGTCACGTGGGTGA | -0.01
GGTTTCACGTGTTGGC | 0.35
GTATACACGTGTTTTC | 0.08
GTCTTCACGTGAGGGA | 0.28
GGTCACACGTGTTAGT | 0.28
ATTCTCACGTGGGCGT | 0.14
TGTTTCACGTGTATAG | 0.36
TCCTTCACGTGAGTTG | 0.52
GATGACACGTGGGTTC | 0.09
ATGGTCACGTGGAGGG | 0.03
CTATGCACGTGAGGTG | -0.03
AGTTACACGTGGATTA | 0.13
CAGTACACGTGATGTG | 0.14
TGCGGCACGTGATGGG | 0.02
GAGGTCACGTGGGATC | 0.04
TGCGGCACGTGGTGTT | -0.16
AGAAGCACGTGTTTGG | 0.07
GTTGGCACGTGACTGA | 0.04
CATGGCACGTGCGGGC | -0.13
TCGGGCACGTGTAGGG | -0.01
TGACACACGTGTTGGT | -0.15
TGGCTCACGTGCGTTG | 0.17
AGCGTCACGTGTGGTC | 0.21

Sequence | relative binding free energy [kcal/mol]
AGTGACACGTGGAGTG | -0.05
TTGGTCACGTGAATTA | 0.32
TGATGCACGTGGGATT | -0.04
TGGTTCACGTGACTGG | 0.45
AAAGGCACGTGATAGT | -0.16
TATTGCACGTGTTGTG | 0.03
AGCGGCACGTGTTGTT | 0.09
GAGGGCACGTGCATGA | 0.05
GCTGCCACGTGTTGGG | -0.14
TTAAGCACGTGATGCG | -0.14
AGCGTCACGTGTGGCA | 0.05
ACGGGCACGTGTGAGT | -0.08
ATATGCACGTGGATTG | 0.07
GGTCTCACGTGGTTAT | 0.01
GAAGCCACGTGTGGGT | -0.1
CTATGCACGTGGTGTG | -0.09
GGGGTCACGTGGGCCT | 0.24
CGTTGCACGTGAGTTT | 0.21
TGTGTCACGTGTATTC | 0.05
ACGGACACGTGGTTGG | -0.06
GGGTACACGTGGCAGG | -0.02
TTTTCCACGTGGTGAT | 0.15
GGTGACACGTGATTGA | 0.19

Sequence | relative binding free energy [kcal/mol]
TGGGCCACGTGGTTTT | -0.05
GTTTGCACGTGATAGA | 0.14
AGTGACACGTGTGGAT | -0.09
GGGTACACGTGGTAGG | 0.04
GTTTTCACGTGACTTG | 0.34
GTTTGCACGTGTGACT | 0.11
CTTTGCACGTGGGTTC | -0.2
TTGTGCACGTGACAAT | 0.11
TGTAGCACGTGTTCTG | -0.1
GCGAGCACGTGTGGAT | 0.17
ATATGCACGTGATGGG | 0.09
TTGAGCACGTGGTCGT | -0.2
TTAGTCACGTGTGAAC | 0.28
TGACACACGTGTTGTG | -0.13
TCGTTCACGTGTGGTC | 0.26
CATGACACGTGGAGGG | 0.1
GTCAACACGTGGAAGG | 0.26
GGTGGCACGTGGGACG | -0.14
TAGTGCACGTGTTGGG | 0.05
ATACGCACGTGGGAGT | -0.17
GTAATCACGTGGGAGA | 0.16
TGTAGCACGTGGCGTG | -0.09
TTAGACACGTGATTTT | 0.16
